Measurements as given in paper PMC4550278.
These are yes or no findings as the source states them, for the method shown. In cells and extracts the contact can be indirect. Some entries that bind do so weakly or less than the wild type.

By UniProt entry, the sequences of proteins in these tests, tags left out.
UniProt Q9VU02: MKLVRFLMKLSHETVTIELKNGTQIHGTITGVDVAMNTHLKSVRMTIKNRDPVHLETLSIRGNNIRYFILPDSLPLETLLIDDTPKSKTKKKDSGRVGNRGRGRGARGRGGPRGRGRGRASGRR
UniProt Q05856: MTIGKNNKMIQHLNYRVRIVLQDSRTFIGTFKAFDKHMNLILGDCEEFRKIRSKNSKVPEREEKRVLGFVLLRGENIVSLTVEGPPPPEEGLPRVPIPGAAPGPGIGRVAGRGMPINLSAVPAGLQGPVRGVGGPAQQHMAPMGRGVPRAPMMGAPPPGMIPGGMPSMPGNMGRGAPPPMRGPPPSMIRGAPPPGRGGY
UniProt Q24297: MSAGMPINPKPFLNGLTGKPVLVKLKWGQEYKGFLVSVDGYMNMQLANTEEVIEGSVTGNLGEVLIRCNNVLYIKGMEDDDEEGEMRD
UniProt Q32KD4: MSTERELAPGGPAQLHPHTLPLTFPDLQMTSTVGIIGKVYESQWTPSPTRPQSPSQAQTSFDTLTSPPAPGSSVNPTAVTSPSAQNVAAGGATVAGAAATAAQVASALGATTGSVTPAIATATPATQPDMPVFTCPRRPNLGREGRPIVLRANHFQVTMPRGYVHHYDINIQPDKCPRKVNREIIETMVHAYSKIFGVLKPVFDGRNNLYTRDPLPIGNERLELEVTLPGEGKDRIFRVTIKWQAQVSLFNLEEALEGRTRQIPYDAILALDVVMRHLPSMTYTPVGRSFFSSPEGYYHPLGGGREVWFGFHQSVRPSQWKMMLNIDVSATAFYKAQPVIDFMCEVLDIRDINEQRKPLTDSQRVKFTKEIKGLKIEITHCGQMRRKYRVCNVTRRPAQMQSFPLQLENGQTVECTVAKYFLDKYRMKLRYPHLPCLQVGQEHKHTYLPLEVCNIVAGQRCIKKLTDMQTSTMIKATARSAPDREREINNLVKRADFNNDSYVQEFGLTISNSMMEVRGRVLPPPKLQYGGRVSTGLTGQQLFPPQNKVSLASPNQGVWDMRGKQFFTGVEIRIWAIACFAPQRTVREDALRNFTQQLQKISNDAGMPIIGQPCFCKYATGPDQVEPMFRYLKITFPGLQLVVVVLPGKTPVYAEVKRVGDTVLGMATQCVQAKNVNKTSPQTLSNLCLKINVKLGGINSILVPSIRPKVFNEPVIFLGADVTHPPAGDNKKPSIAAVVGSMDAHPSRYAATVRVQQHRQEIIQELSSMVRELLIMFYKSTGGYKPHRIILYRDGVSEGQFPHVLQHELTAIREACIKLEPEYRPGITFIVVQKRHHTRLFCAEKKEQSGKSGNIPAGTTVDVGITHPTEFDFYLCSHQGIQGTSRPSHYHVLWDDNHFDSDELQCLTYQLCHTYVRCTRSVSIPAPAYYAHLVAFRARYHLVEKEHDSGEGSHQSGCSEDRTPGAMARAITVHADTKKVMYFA

Legend:
[1] = molecular target: Flag-tagged SmD1 (Drosophila) (UniProt Q9VU02); experiment: co-IP; lysates of S2 cells expressing a Flag-tagged protein, immunoprecipitated with anti-Flag antibody; endogenous partners detected by immunoblotting; immunoprecipitates treated with or without RNase A (Fig 3A, 4D); lysis buffer 20 mM Tris-HCl pH 7.6, 150 mM NaCl, 2 mM EDTA, 10% glycerol, 1% Triton X-100, 1 mM DTT
[2] = molecular target: Flag-tagged Ran (control protein) (UniProt Q9VZ23); experiment: as above
[3] = molecular target: Flag-tagged SmB (Drosophila) (UniProt Q05856); experiment: co-IP; lysates of S2 cells co-expressing a Flag-tagged protein (SmD1, other Sm proteins or Ran) and T7-tagged Pasha (full length or truncated), immunoprecipitated with anti-Flag antibody; immunoblotting with anti-T7, anti-SmD1 and anti-Flag
[4] = molecular target: Flag-tagged SmD1 (Drosophila) (UniProt Q9VU02); experiment: as above
[5] = molecular target: Flag-tagged SmF (Drosophila) (UniProt Q24297); experiment: as above
[6] = molecular target: Flag-tagged AGO1 (Drosophila) (UniProt Q32KD4); experiment: co-IP; lysates of S2 cells expressing a Flag-tagged protein, immunoprecipitated with anti-Flag antibody; endogenous partners detected by immunoblotting; immunoprecipitates treated with or without RNase A (Fig 3A, 4D); lysis buffer 20 mM Tris-HCl pH 7.6, 150 mM NaCl, 2 mM EDTA, 10% glycerol, 1% Triton X-100, 1 mM DTT

Row | binding [1] | binding [2] | binding [3] | binding [4] | binding [5] | binding [6] | Substance
1 | binds | no binding | – | – | – | – | endogenous AGO1 (from UniProt Q32KD4 1-984)
2 | – | no binding | binds | binds | binds | binds | endogenous SmD1 (from UniProt Q9VU02 1-124)
